# Results taken from article PMC9911399, “Two distinct binding modes provide the RNA-binding protein RbFox with extraordinary sequence specificity”.
# Positions count from the first letter of the chain named. Some of the results follow.
# T1: RBFOX1 RRM (Homo sapiens, UniProt Q9NWB1 109-208)
# T1 sequence: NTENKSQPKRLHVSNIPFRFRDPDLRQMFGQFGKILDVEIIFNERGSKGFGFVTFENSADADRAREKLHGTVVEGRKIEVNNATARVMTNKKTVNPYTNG
# B1: CUUUGGU (DNA:RNA)
# RNA: GGGAGACCGGAAUUCAGAUUGUCCCUUUGGUUUAAAUCCCGUCGUAGCCACCA
# DNA 1: CAATCTGAATTCCGGTCTCCC
# DNA 2: TGGTGGCTACGACGGGATT
# B2: UCAUCGA (DNA:RNA)
# RNA: B1 RNA with C25U, U26C, U27A, G29C, U31A
# DNA 1: CAATCTGAATTCCGGTCTCCC
# DNA 2: TGGTGGCTACGACGGGATT
# B3: GUAACAU (DNA:RNA)
# RNA: B1 RNA with C25G, U27A, U28A, G29C, G30A
# DNA 1: CAATCTGAATTCCGGTCTCCC
# DNA 2: TGGTGGCTACGACGGGATT
# B4: AUGAGGC (DNA:RNA)
# RNA: B1 RNA with C25A, U27G, U28A, U31C
# DNA 1: CAATCTGAATTCCGGTCTCCC
# DNA 2: TGGTGGCTACGACGGGATT
# B5: UUGGUCC (DNA:RNA)
# RNA: B1 RNA with C25U, U27G, U28G, G29U, G30C, U31C
# DNA 1: CAATCTGAATTCCGGTCTCCC
# DNA 2: TGGTGGCTACGACGGGATT
# B6: CGUGAGU (DNA:RNA)
# RNA: B1 RNA with U26G, U28G, G29A
# DNA 1: CAATCTGAATTCCGGTCTCCC
# DNA 2: TGGTGGCTACGACGGGATT
# B7: UCGGAGU (DNA:RNA)
# RNA: B1 RNA with C25U, U26C, U27G, U28G, G29A
# DNA 1: CAATCTGAATTCCGGTCTCCC
# DNA 2: TGGTGGCTACGACGGGATT
# B8: CGGCCUA (DNA:RNA)
# RNA: B1 RNA with U26G, U27G, U28C, G29C, G30U, U31A
# DNA 1: CAATCTGAATTCCGGTCTCCC
# DNA 2: TGGTGGCTACGACGGGATT
# B9: UAUCGAU (DNA:RNA)
# RNA: B1 RNA with C25U, U26A, U28C, G30A
# DNA 1: CAATCTGAATTCCGGTCTCCC
# DNA 2: TGGTGGCTACGACGGGATT
# B10: GGCGUAC (DNA:RNA)
# RNA: GGGAGACCGGAAUUCAGAUUGUCCGGCGUACUUAAAUCCCGUCGUAGCCACCA
# DNA 1: CAATCTGAATTCCGGTCTCCC
# DNA 2: TGGTGGCTACGACGGGATT
# B11: UUUUGAG (DNA:RNA)
# RNA: B1 RNA with C25U, G30A, U31G
# DNA 1: CAATCTGAATTCCGGTCTCCC
# DNA 2: TGGTGGCTACGACGGGATT
# B12: UUCUACU (DNA:RNA)
# RNA: B1 RNA with C25U, U27C, G29A, G30C
# DNA 1: CAATCTGAATTCCGGTCTCCC
# DNA 2: TGGTGGCTACGACGGGATT
# B13: GUCGAGU (DNA:RNA)
# RNA: B1 RNA with C25G, U27C, U28G, G29A
# DNA 1: CAATCTGAATTCCGGTCTCCC
# DNA 2: TGGTGGCTACGACGGGATT
# B14: AUCUGAC (DNA:RNA)
# RNA: B1 RNA with C25A, U27C, G30A, U31C
# DNA 1: CAATCTGAATTCCGGTCTCCC
# DNA 2: TGGTGGCTACGACGGGATT
# B15: AACGCCG (DNA:RNA)
# RNA: B10 RNA with G25A, G26A, U29C, A30C, C31G
# DNA 1: CAATCTGAATTCCGGTCTCCC
# DNA 2: TGGTGGCTACGACGGGATT
# B16: AACAUUC (DNA:RNA)
# RNA: B10 RNA with G25A, G26A, G28A, A30U
# DNA 1: CAATCTGAATTCCGGTCTCCC
# DNA 2: TGGTGGCTACGACGGGATT
# B17: GAAGCCC (DNA:RNA)
# RNA: B10 RNA with G26A, C27A, U29C, A30C
# DNA 1: CAATCTGAATTCCGGTCTCCC
# DNA 2: TGGTGGCTACGACGGGATT
# B18: UAAAUAG (DNA:RNA)
# RNA: B10 RNA with G25U, G26A, C27A, G28A, C31G
# DNA 1: CAATCTGAATTCCGGTCTCCC
# DNA 2: TGGTGGCTACGACGGGATT
# B19: GGCAAAU (DNA:RNA)
# RNA: B10 RNA with G28A, U29A, C31U
# DNA 1: CAATCTGAATTCCGGTCTCCC
# DNA 2: TGGTGGCTACGACGGGATT
# B20: GCCUUCC (DNA:RNA)
# RNA: B10 RNA with G26C, G28U, A30C
# DNA 1: CAATCTGAATTCCGGTCTCCC
# DNA 2: TGGTGGCTACGACGGGATT
# Target: T1, RBFOX1 RRM
# Assay: EMSA; HiTS-Eq, 1 nM pool, 10 min; buffer printed only for the single-RNA assays: 10 mM Tris pH 7.5, 150 mM NaCl, 3.4 mM EDTA, 0.001% NP-40, 30 C
# Conditions: tags: His6 N-terminal (pET28a); label: 5' 32P
# Method in brief: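 A pool of RNA with 7 randomized nucleotides, 5′-radiolabelled and with DNA-annealed flanks, was equilibrated at 1 nM for 10 min in 50 µL with purified RbFox RRM, wild type or mutant, across increasing protein concentrations. Free RNA was separated by 8% native PAGE, excised, reverse-transcribed, barcoded by PCR and sequenced. Relative association constants were obtained from read-count changes of each RNA species versus the control reaction and normalised to the cognate motif.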
row,Binder,binding signal
1,B1,0.0169 KA relative to UGCAUGU
2,B2,0.00866 KA relative to UGCAUGU
3,B3,0.00215 KA relative to UGCAUGU
4,B4,0.0125 KA relative to UGCAUGU
5,B5,0.0262 KA relative to UGCAUGU
6,B6,0.0154 KA relative to UGCAUGU
7,B7,0.00719 KA relative to UGCAUGU
8,B8,0.00888 KA relative to UGCAUGU
9,B9,0.00993 KA relative to UGCAUGU
10,B10,0.0196 KA relative to UGCAUGU
11,B11,0.0242 KA relative to UGCAUGU
12,B12,0.00512 KA relative to UGCAUGU
13,B13,0.0162 KA relative to UGCAUGU
14,B14,0.014 KA relative to UGCAUGU
15,B15,0.00493 KA relative to UGCAUGU
16,B16,0.00217 KA relative to UGCAUGU
17,B17,0.00758 KA relative to UGCAUGU
18,B18,0.00865 KA relative to UGCAUGU
19,B19,0.00495 KA relative to UGCAUGU
20,B20,0.00993 KA relative to UGCAUGU
